From article PMC8245078, “Development of novel benzofuran-isatin conjugates as potential antiproliferative agents with apoptosis inducing mechanism in Colon cancer” (Journal of Enzyme Inhibition and Medicinal Chemistry, 2021)

Experiments:
NCI-H322M [1] = assay: NCI single dose screening (10 µM); details: Homo sapiens, read-out: GI% (cell growth inhibition percentage)
Text: In the present investigation, the chemical structures for the novel benzofuran-isatin conjugates were presented to the Developmental Therapeutics Program at the National Cancer Institute (NCI), USA. Seven conjugates (5b–d,7a, 7b, 7d and 7g) were selected, according to NCI’s-DTP selection guidelines, for evaluating their potential in vitro anticancer activity against a panel of fifty-five human cancer cell lines representing nine tumour panels according to the NCI, Bethesda, Drug Evaluation Branch protocol[57]^,[58].
Firstly, the seven selected conjugates (5b–d,7a, 7b, 7d and 7g) were screened at a dose of 10 μM for their antiproliferative activity against a panel of fifty-five cancer cell lines.
(§1) 2.1. NCI, USA Anticancer Screening
The cytotoxicity in vitro assay was conducted at National Cancer Institute (NCI), Bethesda, USA against 59 cancer cell lines. The one-dose data were reported as a mean graph of the percent growth of treated cells. The number reported for the one-dose assay was growth relative to the no-drug control and relative to the time zero number of cells. This allowed detection of both growth inhibition (values between 0 and 100) and lethality (values less than 0). For example, a value of 100 means no growth inhibition. A value of 40 would mean 60% growth inhibition. A value of 0 means no net growth over the course of the experiment. A value of -40 would mean 40% lethality. A value of -100 means all cells were dead.
The human tumor cell lines of the cancer screening panel were grown in RPMI 1640 medium containing 5% fetal bovine serum and 2 mM L-glutamine. For a typical screening experiment, cells were inoculated into 96 well microtiter plates in 100 μL at plating densities ranging from 5,000 to 40,000 cells/well depending on the doubling time of individual cell lines. After cell inoculation, the microtiter plates were incubated at 37° C, 5 % CO2, 95 % air and 100 % relative humidity for 24 h prior to addition of experimental drugs. After 24 h, two plates of each cell line were fixed in situ with TCA, to represent a measurement of the cell population for each cell line at the time of drug addition (Tz). Experimental drugs were solubilized in dimethyl sulfoxide at 400-fold the desired final maximum test concentration and stored frozen prior to use. At the time of drug addition, an aliquot of frozen concentrate was thawed and diluted to twice the desired final maximum test concentration with complete medium containing 50 μg/mL gentamicin.
Additional four, 10-fold or ½ log serial dilutions were made to provide a total of five drug concentrations plus control. Aliquots of 100 μL of these different drug dilutions were added to the appropriate microtiter wells already containing 100 μL of medium, resulting in the required final drug concentrations. Following drug addition, the plates were incubated for an additional 48 h at 37°C, 5 % CO2, 95 % air, and 100 % relative humidity. For adherent cells, the assay was terminated by the addition of cold TCA. Cells were fixed in situ by the gentle addition of 50 μL of cold 50 % (w/v) TCA (final concentration, 10 % TCA) and incubated for 60 minutes at 4°C.
The supernatant was discarded, and the plates were washed five times with tap water and air dried. Sulforhodamine B (SRB) solution (100 μL) at 0.4 % (w/v) in 1 % acetic acid was added to each well, and plates were incubated for 10 minutes at room temperature. After staining, unbound dye was removed by washing five times with 1 % acetic acid and the plates were air dried. Bound stain was subsequently solubilized with 10 mM trizma base, and the absorbance was read on an automated plate reader at a wavelength of 515 nm. For suspension cells, the methodology was the same except that the assay was terminated by fixing settled cells at the bottom of the wells by gently adding 50 μL of 80 % TCA (final concentration, 16 % TCA).
Using the seven absorbance measurements [time zero, (Tz), control growth, (C), and test growth […]

NCI-H322M [2] = details: Homo sapiens, five-dose test, read-out: LC50 (the source's name)
Method: Accordingly, 5d was promoted to the five-dose (0.01–100 µM) screening assay. […] Where, GI50 values represents molar concentration which produces 50% inhibitory effect in the net cell growth; TGI (cytostatic activity) is the molar concentration with total growth inhibition and LC50 is the cytotoxicity parameter that reflects the molar concentration that results in 50% net cell death. In addition, the mean graph midpoints (MG-MID), representing the GI50 average for the individual subpanels as well as the full panel cell lines were calculated giving an average potency parameter for the examined compound 5d, (Table 3). Furthermore, by dividing the full panel MID by their individual subpanel MID, the selectivity index of compound 5d was calculated and was used to measure the selectivity of 5d towards different cancer cell subpanels.
as §1
The cytotoxicity in vitro assay was conducted at National Cancer Institute (NCI), Bethesda, USA against 59 cancer cell lines. The one-dose data were reported as a mean graph of the percent growth of treated cells. […]
The supernatant was discarded, and the plates were washed five times with tap water and air dried. […] Bound stain was subsequently solubilized with 10 mM trizma base, and the absorbance was read on an automated plate reader at a wavelength of 515 nm. […]

[3] = Non-small cell lung cancer, single dose 10^−5 M

SMILES	inhibition at 10 µM (NCI-H322M [1]; [3]) [%]	CC50 (NCI-H322M [2]) [µM]	inhibition at 10 µM (NCI-H322M [1]) [%]
Cc1c(C(=O)N/N=C2\C(=O)Nc3ccc(F)cc32)oc2ccccc12 [Compound 5b]	< 10		
Cc1c(C(=O)N/N=C2\C(=O)Nc3ccc(Br)cc32)oc2ccccc12 [Compound 5c]	31.8		
COc1ccc2c(c1)/C(=N/NC(=O)c1oc3ccccc3c1C)C(=O)N2 [Compound 5d]	69.4	> 100	
Cc1c(C(=O)N/N=C2\C(=O)N(C)c3ccccc32)oc2ccccc12 [Compound 7a]	< 10		
CCCN1C(=O)/C(=N\NC(=O)c2oc3ccccc3c2C)c2ccccc21 [Compound 7b]			11.9
Cc1c(C(=O)N/N=C2\C(=O)N(Cc3ccccc3)c3ccccc32)oc2ccccc12 [Compound 7d]			17.8
CCCN1C(=O)/C(=N\NC(=O)c2oc3ccccc3c2C)c2cc(Br)ccc21 [Compound 7g]			< 10

Where two headings read alike, the source gives them in different places.
